What was measured:
[1] = Rat plasma toxicokinetics post VB311 administration at 1,000 mg/kg; conditions: for relative amount in plasma: label = analyte
[2] = Rat plasma toxicokinetics post VB302 administration at 1,000 mg/kg; conditions: post VB302 oral gavage 1,000 mg/kg, label = analyte in plasma; for AUC in plasma: 1, 2, 6, 24 hours
[3] = Antimicrobial activity observed in phytocannabinoid glycosylation reaction mixtures; conditions: large-scale glycosylation reaction mixtures
[4] = Analysis of large intestine contents upon administration of CBD and CBD glycosides; format: in vivo, Swiss mice; conditions: 2 hours
Description: In order to investigate the metabolism and decoupling of CBD-glycosides in the large intestine, an aqueous solution of a mixture of CBD-glycosides was administered to a mouse by oral gavage. As a control, a solution of CBD in cremophor, ethanol, and saline was administered to a second mouse. The animals were each sacrificed at 2 hours. Following termination and tissue harvest, the intestinal contents were then extracted and analyzed by C18 reverse phase HPLC. The mice employed in this example were eight week old male Swiss mice fasted for 12 hours prior to administration of the solutions.
The resulting extracts were analyzed by LCMS performed using a Shimadzu LC-MS 2010 EV. LC separation was carried out using a Silia Chrom XDB C18 5 um, 150A, 4.6×50 mm. The method was 12 min, 5 to 95 H2O:ACN gradient elution. Low resolution MS was performed in negative mode via electrospray ionization (ESI). Acetic acid and formic acid were used as sample additives during analysis, and the injection volume was 20 µl.

[5] = system: Lallzyme Beta™ (Lallemand); test: In vitro digestion with Lallzyme Beta; conditions: 5 mg/ml Lallzyme Beta, 20 mM citrate buffer pH 4.0, 44° C.; HPLC
[6] = Bioavailability assay: intestinal contents after oral gavage of VB110; format: in vivo, Swiss mice; conditions: 120 mg/kg VB110 oral gavage, C18 HPLC
Description: In order to investigate the effectiveness of glycosylation to effect site-specific drug delivery, VB110 was administered to three mice by oral gavage and the animals sacrificed at 30, 60, and 90 minutes. Eight week old male Swiss mice were fasted for 12 hours prior to administration of 120 mg/kg VB110 in 10% Ethanol USP, 10% Propylene Glycol USP, 0.05% Sodium Deoxycholate USP, 79.95% Saline USP. Following termination and tissue harvest, the intestinal contents were then extracted and analyzed by C18 reverse phase HPLC. […] This decoupling of VB110 is consistent with the large intestinal decoupling seen for sennoside beta-glycosides, and is the result of secreted beta-glycosidases from the large intestinal microflora.

[7] = system: Canus familiarus fecal sample; test: Canine fecal digestion assay; format: in vitro ADME; conditions: fecal samples 25 and 26; 37° C., 70 hours
Description: As the intestinal contents or feces of animals contain a tremendous diversity of microbes, as well as the carbohydrate-digesting enzymes secreted by those bacteria, it would be expected that when THC-glycosides are subjected to the intestines or feces of animals, they would decouple back to THC. The following samples were assayed to determine their respective glycosidic activities on select THC-glycosides: • 25 = Canus familiarus fecal sample, “Stevie”; Terrier of mixed breed; • 26 = Canus familiarus fecal sample, “Lucy”; Labrador Retriever; • 27 =Mus musculus small intestine contents, BALB/C; • 28 = Mus musculus large intestine contents, BALB/C; • 29 = Rattus rattus small intestine contents, Sprague Dawley; • 30 = Rattus rattus large intestine contents, Sprague Dawley; • 31 = Rattus rattus intestines - inferred from plasma sample, Sprague Dawley; • 32= Macaca fascicularis intestines - inferred from plasma sample, Cynomolgus monkey.
The assay for the Canus familiarus fecal samples was carried out according to the following protocol: A fresh fecal sample was obtained using an ethanol sterilized scoopula and transferred into a sterile 50 ml conical tube. […]
200 µl samples were pulled and extracted 3 times with 200 µl ethyl acetate (EtOAc) each. […] A 1:10 dilution of each was prepared in 50% MeOH and 10 µl injections were analyzed by HPLC. […]

[8] = system: Vinotaste Pro (Novozymes); test: In vitro digestion with Vinotaste Pro; conditions: same digestion conditions as for Lallzyme Beta; HPLC
[9] = molecular target: human cannabinoid receptor type 2 (CB2R) (Homo sapiens, UniProt P34972); test: Radioligand binding assay, human CB2R; conditions: 10 µM test compound; 2.40 nanomolar [3H] R(+)-WIN-55,212-2; human recombinant CHO-K1 cells; 90 minutes at 37 C
[10] = 1,000 mg/kg mixed glycosides by oral gavage; 6 hours; HPLC
[11] = rat plasma, analyte measured after oral gavage of VB311 at 1,000 mg/kg, average

Chain of UniProt P34972 (P34972 whole entry): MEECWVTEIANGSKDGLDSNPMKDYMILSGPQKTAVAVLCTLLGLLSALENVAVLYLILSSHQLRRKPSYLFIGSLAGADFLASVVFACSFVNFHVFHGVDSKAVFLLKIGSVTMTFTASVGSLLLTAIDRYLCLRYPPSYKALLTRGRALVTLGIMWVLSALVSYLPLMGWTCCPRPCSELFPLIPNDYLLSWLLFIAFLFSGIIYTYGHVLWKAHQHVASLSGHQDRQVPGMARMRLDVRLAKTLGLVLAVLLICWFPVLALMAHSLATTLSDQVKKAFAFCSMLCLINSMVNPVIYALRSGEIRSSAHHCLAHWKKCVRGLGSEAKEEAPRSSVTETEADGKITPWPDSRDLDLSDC

CCCCCc1cc(O)c2c(c1)OC(C)(C)[C@@H]1CCC(CO)=C[C@@H]21 [11-OH-Tetrahydrocannabinol, reference compound]
relative amount in plasma ([1]; 6 hours post VB311 oral gavage): remained at trace levels
relative amount in plasma ([1]; 24 hours post VB311 oral gavage): increased at 24 hours
Cmax [1, 11]: 17.3 ng/mL
Tmax [1, 11]: 24.0 h
AUC ([1]; rat plasma, analyte measured after oral gavage of VB311 at 1,000 mg/kg, average, over 24 hours): 320.2 ng·h/mL
AUC in plasma ([2]; listed as 11-OH-THC): 106.9 ng·h/mL
AUC in plasma ([2]; listed as Δ9-THC-11-OH): 107 ng·h/mL
Cmax in plasma [2]: 7.9 ng/mL
Tmax in plasma [2]: 24.0 h

C=C(C)[C@@H]1CCC(C)=C[C@H]1c1c(O)cc(CCCCC)cc1O [VB101, Cannabidiol (CBD)]
antimicrobial activity [3]: noticeable antimicrobial activity
presence of CBD-glycosides and CBD in plasma and brains ([4]; HPLC, data not shown): CBD was only present in the control animal that received CBD aglycone
compounds found in large intestinal contents ([4]; oral CBD in cremophor, ethanol, saline (control), LCMS): hydroxy metabolites of CBD were present

C=C(C)[C@@H]1CCC(C)=C[C@H]1c1c(O)cc(CCCCC)cc1O[C@@H]1O[C@H](CO)[C@@H](O)[C@H](O)[C@H]1O [VB102, CBD-1-O-glucopyranoside]
digestion by Lallzyme Beta (extent / products) [5]: VB102 to CBD

C=C(C)[C@@H]1CCC(C)=C[C@H]1c1c(O[C@@H]2O[C@H](CO)[C@@H](O)[C@H](O)[C@H]2O)cc(CCCCC)cc1O[C@@H]1O[C@H](CO)[C@@H](O)[C@H](O)[C@H]1O [VB110, CBD-1,2-O-diglucopyranoside]
compounds found in small intestinal contents ([6]; 30, 60, 90 minutes): intact VB110, but no decoupled CBD
compounds found in large intestinal contents ([6]; 60 and 90 minute time points): contained both VB110 and CBD
digestion by Lallzyme Beta (extent / products) [5]: capable of hydrolyzing VB110 to VB102

C=C(C)[C@@H]1CCC(C)=C[C@H]1c1c(O)cc(CCCCC)cc1O[C@@H]1O[C@H](CO)[C@@H](O[C@@H]2O[C@H](CO)[C@@H](O)[C@H](O)[C@H]2O)[C@H](O[C@@H]2O[C@H](CO)[C@@H](O)[C@H](O)[C@H]2O)[C@H]1O [VB135]
resistance to glycoside hydrolase activity in canine feces [7]: unique resistance to glycoside hydrolase activity
digestion by Lallzyme Beta (extent / products) [5]: highly resistant to hydrolysis
digestion by Vinotaste Pro (extent / products) [8]: highly resistant to hydrolysis

CCCCCc1cc(O)c2c(c1)OC(C)(C)[C@@H]1CCC(C)=C[C@@H]21 [VB301, Δ9-Terahydrocannabinol, reference compound]
percent displacement of [3H] WIN-55,212-2 at human CB2R [9]: 97%

CCCCCc1cc(O[C@@H]2O[C@H](CO)[C@@H](O)[C@H](O)[C@H]2O)c2c(c1)OC(C)(C)[C@@H]1CCC(C)=C[C@@H]21 [VB302, Δ9THC-1-O-glucopyranoside]
percent displacement of [3H] WIN-55,212-2 at human CB2R [9]: 17%

CCCCCc1cc(O[C@@H]2O[C@H](CO)[C@@H](O[C@@H]3O[C@H](CO)[C@@H](O)[C@H](O)[C@H]3O)[C@H](O)[C@H]2O)c2c(c1)OC(C)(C)[C@@H]1CCC(C)=C[C@@H]21 [VB309]
change of share of total THC-glycosides in large intestine extracts versus small intestine extracts [10]: sharp decrease
change of share of total THC-glycosides in small intestine extracts versus administered mixture [10]: increases
digestion by Lallzyme Beta (extent / products) [5]: entirely digested into VB302

CCCCCc1cc(O[C@@H]2O[C@H](CO[C@@H]3O[C@H](CO)[C@@H](O)[C@H](O)[C@H]3O)[C@@H](O)[C@H](O)[C@H]2O)c2c(c1)OC(C)(C)[C@@H]1CCC(C)=C[C@@H]21 [VB310]
change of share of total THC-glycosides in large intestine extracts versus small intestine extracts [10]: further increases
change of share of total THC-glycosides in small intestine extracts versus administered mixture [10]: increases
digestion by Lallzyme Beta (extent / products) [5]: entirely digested into VB302

CCCCCc1cc(O[C@@H]2O[C@H](CO[C@@H]3O[C@H](CO)[C@@H](O)[C@H](O)[C@H]3O)[C@@H](O[C@@H]3O[C@H](CO)[C@@H](O)[C@H](O)[C@H]3O)[C@H](O)[C@H]2O)c2c(c1)OC(C)(C)[C@@H]1CCC(C)=C[C@@H]21 [VB311]
percent displacement of [3H] WIN-55,212-2 at human CB2R [9]: 21%

CCCCCc1cc(O[C@@H]2O[C@H](CO)[C@@H](O[C@@H]3O[C@H](CO)[C@@H](O)[C@H](O[C@@H]4O[C@H](CO)[C@@H](O)[C@H](O)[C@H]4O)[C@H]3O)[C@H](O)[C@H]2O)c2c(c1)OC(C)(C)[C@@H]1CCC(C)=C[C@@H]21 [VB312]
change of share of total THC-glycosides in large intestine extracts versus small intestine extracts [10]: further decreases
change of share of total THC-glycosides in small intestine extracts versus administered mixture [10]: modest decrease
digestion by Lallzyme Beta (extent / products) [5]: entirely digested into VB302

CCCCCc1cc(O[C@@H]2O[C@H](CO[C@@H]3O[C@H](CO)[C@@H](O)[C@H](O)[C@H]3O)[C@@H](O[C@@H]3O[C@H](CO)[C@@H](O)[C@H](O[C@@H]4O[C@H](CO)[C@@H](O)[C@H](O)[C@H]4O)[C@H]3O)[C@H](O)[C@H]2O)c2c(c1)OC(C)(C)[C@@H]1CCC(C)=C[C@@H]21 [VB313]
change of share of total THC-glycosides in small intestine extracts versus administered mixture [10]: sharp decrease

CBD-1-O-(3-1), 2-O-(3-1)-tetraglucopyranoside [VB119]
digestion by Lallzyme Beta (extent / products) [5]: digested back primarily to VB102, with some VB110 and slight CBD
digestion by Vinotaste Pro (extent / products) [8]: digested back to VB110, with a small amount of VB102

CBD-1-O-(3-1), 2-O-triglucopyranoside [VB112]
digestion by Lallzyme Beta (extent / products) [5]: digested back primarily to VB102, with some VB110 and slight CBD
digestion by Vinotaste Pro (extent / products) [8]: digested back to VB110, with a small amount of VB102
